According to publication PMC6919601, “Identification of Plasmodium dipeptidyl aminopeptidase allosteric inhibitors by high throughput screening” (PLoS ONE, 2019):
Hit rate of the full screen: of about 110,000 compounds, about 230 (0.21%) showed an effect of 50% or more. This is one part of the list.

target: DPAP1 (Plasmodium falciparum, UniProt Q8IIJ9); test: primary screen, percent inhibition; read by cleavage of a fluorogenic dipeptide substrate; higher = more effect of the substance; parameters: species or system P. falciparum D10 trophozoite lysates; single well
Sequence (Q8IIJ9 whole entry, looked up): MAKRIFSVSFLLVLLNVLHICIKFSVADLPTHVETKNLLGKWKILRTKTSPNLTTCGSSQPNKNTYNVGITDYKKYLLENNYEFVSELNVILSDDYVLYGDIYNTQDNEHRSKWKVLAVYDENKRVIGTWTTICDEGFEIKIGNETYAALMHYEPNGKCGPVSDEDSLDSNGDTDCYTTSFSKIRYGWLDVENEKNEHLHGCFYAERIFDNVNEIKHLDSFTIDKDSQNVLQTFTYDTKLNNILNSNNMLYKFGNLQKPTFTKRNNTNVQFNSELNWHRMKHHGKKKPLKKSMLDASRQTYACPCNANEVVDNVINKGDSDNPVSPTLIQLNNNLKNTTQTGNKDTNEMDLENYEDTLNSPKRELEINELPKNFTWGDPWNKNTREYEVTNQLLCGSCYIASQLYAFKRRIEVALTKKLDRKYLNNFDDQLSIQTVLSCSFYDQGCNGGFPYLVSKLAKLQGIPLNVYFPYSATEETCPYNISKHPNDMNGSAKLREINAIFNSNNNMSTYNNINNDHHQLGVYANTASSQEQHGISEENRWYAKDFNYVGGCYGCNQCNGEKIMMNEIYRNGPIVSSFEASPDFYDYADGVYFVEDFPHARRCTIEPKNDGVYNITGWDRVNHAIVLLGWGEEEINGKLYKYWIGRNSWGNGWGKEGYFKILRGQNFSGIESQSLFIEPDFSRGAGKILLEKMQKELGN
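Note: 30 min substrate incubation versus DMSO and 10 µM JCP410 controls.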

SMILES	% Inhibition @ 10 uM
O=C(Cn1c(=O)c2cccn2c2cccnc21)NCCCc1ccccc1	-7.24%
O=C(O)CC12CC3CC(C1)CC(n1ncc(NCc4ccc(F)cc4)c(Cl)c1=O)(C3)C2	-0.999%
CCc1ccc(-n2nnc(S(=O)(=O)c3ccc(C)cc3)c2C)cc1	-4.58%
Cc1nc2ccc(S(=O)(=O)NC(C(=O)Nc3nccs3)C(C)C)cc2s1 (stereo not drawn)	9.05%
O=C(Cc1noc2ccccc12)Nc1cccnc1Cl	-3.49%
Cc1coc2c(C)c3oc(=O)c(CCC(=O)NCc4ccc5c(c4)OCO5)c(C)c3cc12	5.68%
COc1ccc2c(c1)nc1n2CN(CC2CCCO2)CN1Cc1ccccc1 (stereo not drawn)	2.31%
Cc1cc(O)c2c(C)c(CC(=O)NCc3ccccc3)c(=O)oc2c1	0.895%
Cc1ccc(CNC(=O)CSc2nc3nccnc3c(=O)n2CCc2c[nH]c3ccccc23)cc1	-5.01%
Cc1noc(C)c1S(=O)(=O)N(C)CC(=O)NC1CCCCC1	-7.66%
CCOC(=O)c1c(N)n(-c2ccc(OC)cc2)c2nc3ccccc3nc12	-7.87%
O=S(=O)(c1cc(Cl)ccc1Cl)N1CCCc2ccccc21	3.53%
CCn1nc(C)c(NC(=O)c2ccoc2C)c1C	-4.5%
Cc1cc(C)nc(N(C#N)CN2C(=O)c3ccccc3C2=O)n1	-0.759%
CC(C)CC1Oc2ccccc2C2CC(c3ccccc3O)=NN12 (stereo not drawn)	-3.72%
N#CCNC(=O)C(CSCc1ccccc1)NC(=O)c1cccc(NC(=O)Nc2nncs2)c1 (stereo not drawn)	-3.49%
COc1ccc(CNCc2c(C(=O)O)n(C)c3cc(OC)ccc23)cc1	0.711%
CCN(C(=O)C1CCC(C)CC1)c1nc(-c2ccccc2)cs1 (stereo not drawn)	1.49%
CCOc1ccccc1OCC(C)CNC (stereo not drawn)	-5.35%
COc1cccc(N2C(=O)CC(N3CCc4ccccc4C3)C2=O)c1 (stereo not drawn)	2.42%
Cc1ccc(OCC(=O)Nc2nn3c(CC(C)C)nnc3s2)cc1	5.53%
CC1=CC=CN2C(=O)C(Cc3ccccc3)(NC(=O)c3ccccc3)N=C12 (stereo not drawn)	4.22%
COc1ccc(C(CC(=O)Nc2cccc(C)n2)N2Cc3ccccc3C2=O)cc1OC (stereo not drawn)	-1.48%
CC(C)CNc1nc(Oc2ccc(OCc3ccccc3)nn2)nc(N2CCOCC2)n1	5.2%
CCCCNC(=O)CNC(=O)c1cccs1	3.66%
O=C(COc1ccc(Cl)cc1)N1CCN(C2C3CC4CC(C3)CC2C4)CC1 (stereo not drawn)	-3.4%

SMILES	% Inhibition @ 10 uM
O=C(Nc1ccc(Br)c2cccnc12)c1ccc(Cn2cc(Cl)cn2)o1	5.9%
CCc1nn(CC(=O)NCc2ccccc2OC)c(=O)c2cc3sccc3n12	1.8%
Cc1ccc(S(=O)(=O)Cc2nc(-c3ccc(C(=O)NCCN(C)C)cc3)oc2C)cc1	-2.4%
O=C(O)c1ccccc1C(=O)Nc1ccc(-c2ccccc2)cc1	-0.736%
COC(=O)C1=C(C)N(CC2CCCO2)C(=O)/C1=C\c1cccc(Br)c1 (stereo not drawn)	-3.4%
COc1ccc(CNS(=O)(=O)c2cccc3cccnc23)cc1	-3.44%
O=S(=O)(c1cnc(Cl)c(Br)c1)N1CCc2ccccc21	0.389%
CCc1ccc(OCC(=O)Nc2ccc(S(=O)(=O)NC(C)(C)C)cc2)cc1	-0.695%
COc1ccc(/C=C2/C(=O)NC(=O)N(C(C)(C)C)C2=O)c(OC)c1	-1.69%
CC(C)(C)c1ccc(C(=O)NCc2ccco2)cc1	-0.48%
Cc1ccc(NC(=O)CN2C(=O)N/C(=C/c3ccco3)C2=O)cc1	-2.19%
O=C(CN(c1cccc(Br)c1)S(=O)(=O)c1ccccc1)NC1CC1	6.79%
COc1ccc2nc(SCC(=O)N3CCc4ccccc4C3)nc(C)c2c1	-1.06%
CC(C)(C)c1ccc(Cn2c(-c3nonc3N)nc3ccccc32)cc1	3.48%
CCCN(CCO)C/C(Br)=C/c1ccccc1	3.35%
CN1CCc2c(sc3nc(SCC(N)=O)nc(SCC(N)=O)c23)C1	-2.46%
CCC(NS(=O)(=O)c1ccccc1)C(=O)O (stereo not drawn)	-5.28%
COc1cc(C(=O)Nc2cccc(C)c2)cc(OC)c1OC	4.96%
CC(CCc1ccccc1)NCC1CCCO1 (stereo not drawn)	-0.0908%
COc1ccc(N(CC(=O)NC2CCCC2)S(=O)(=O)c2ccc(C)cc2)cc1OC	-3.04%
O=C1NC2(CCCCC2)N=C2C3CCCC12CN(C1CCCCC1)C3 (stereo not drawn)	0.0289%
COc1cc(CNCC2CCCO2)cc(Cl)c1OCc1ccccc1 (stereo not drawn)	-3.45%
COc1ccc2cc3cc(C(=O)NCc4cc(Br)ccc4OC)oc3nc2c1	-1.54%
CCCN1CCN(C(=O)Cn2ncc3c4cc(C)ccc4nc-3c2O)CC1	-1.61%
COc1ccc(NC(=O)C2CCC(C)(C(=O)O)C2(C)C)cc1 (stereo not drawn)	-5.51%
COc1cc2nc(S)nc(NCCCN3CCOCC3)c2cc1OC	2.39%

SMILES	% Inhibition @ 10 uM
O=C1C2C3C=CC(CO)(O3)C2C(=O)N1c1cccc(C(F)(F)F)c1 (stereo not drawn)	-4.72%
O=C(CCc1c[nH]c2ccccc12)NC1CC1	-4.67%
COc1cccc2cccc(NC(C)=O)c12	-5.49%
O=C(Nc1ccc(F)cc1F)c1cccs1	2.13%
CC(C)(C)c1ccc(C(=O)Nc2nonc2N)cc1	-0.403%
O=C(COc1ccc2ccccc2c1)NCCC1=CCCCC1	0.583%
CC1CCCCN1CCCNC(=O)c1ccc2nc(N3CCOCC3)sc2c1 (stereo not drawn)	-2.37%
O=C(CCC1CCCC1)Nc1cccnc1Cl	-0.872%
Cc1nn(-c2ccccc2)c2sc(C(=O)NCc3ccccc3)cc12	2.6%
COc1ccc(C2C=C(c3cccc(Br)c3)Nc3nnnn32)c(OC)c1 (stereo not drawn)	-7.08%
CCCCN(C)C(=O)Cn1ncc2c3ccccc3n(Cc3ccccc3)c2c1=O	3.4%
CCc1ccc(-c2nc(SCC(=O)NCCOC)c(-c3ccc(OC)c(OC)c3)[nH]2)cc1	-1.58%
O=C(NCC1CCCO1)Nc1cnc2ccccn2c1=O (stereo not drawn)	0.401%
COc1cccc(CN2CCN(c3ccccc3)CC2)c1	-3.71%
Cc1ccc(C)c(OCC(=O)Nc2ccccn2)c1	-2.76%
CCN1CCC(N2CCCCC2C)CC1 (stereo not drawn)	-5.44%
CC1CCc2cc(F)ccc2N1C(=O)COc1ccccc1 (stereo not drawn)	-1.49%
COC(=O)c1cc(S(=O)(=O)NCC2CCN(CCc3cccs3)CC2)c[nH]1	5.88%
O=C1CC(c2ccccc2)NC(c2ccccc2)C1 (stereo not drawn)	-5.5%
COc1ccc(S(=O)(=O)N(C)CC(=O)Nc2cccc(C(F)(F)F)c2)cc1	9.75%
Fc1ccc(-c2cn3c4ccccc4n(CCN4CCOCC4)c3n2)cc1	2.14%
N=C1/C(=C/c2c[nH]c3ccccc23)C(=O)N=C2SC=C(c3ccccc3)N12	-2.65%
CC1=C(C(=O)N2CCCCC2)C(c2cc(Br)ccc2F)C2=C(O)CCCC2=N1 (stereo not drawn)	4.11%
Cc1nc2ccccc2cc1C(=O)NCc1cccnc1	6.61%
COc1cc(/C=c2\sc3nc(-c4cccc(C)c4)nn3c2=O)cc(OC)c1OC	8.44%
Cc1cccn2cc(-c3cccc(NC(=O)c4c(F)cccc4F)c3)nc12	-0.653%

SMILES	% Inhibition @ 10 uM
O=C(O)c1cccc(NC(=O)c2ccccc2)c1	-1.45%
Cc1ccc(S(=O)(=O)N(CC(=O)Nc2ccc(C(N)=O)cc2)C2CCCCC2)cc1	0.475%
O=C(CCCCCN1C(=O)c2ccccc2C1=O)NCc1ccccc1	0.317%
CCc1ccc(CNCc2c(C(=O)O)[nH]c3cc(OC)ccc23)cc1	-0.397%
Cc1cc2nc3s/c(=C/c4ccc(F)cc4)c(=O)n3c2cc1C	-2.35%
COc1ccccc1CNC(=O)c1cccc(Br)c1	-4.15%
COc1ccc(Cl)cc1N(CC(=O)Nc1ccc(C)c(C)c1)S(C)(=O)=O	-0.185%
CCCNC(=O)C(C)N1Cc2ccccc2C1=O (stereo not drawn)	1.08%
Cc1ccc(NC(=O)c2cccc(C)c2)nc1	-0.251%
COc1cc(/C=C2/NC(=O)NC2=O)c(Br)cc1OCc1ccccc1F	3.29%
Cc1ccc(C(C)NC(=O)CC#N)cc1C (stereo not drawn)	4%
COc1ccc(-c2nc(CS(=O)(=O)CC(=O)NCCCN3CCN(C)CC3)c(C)o2)cc1	-1.89%
CC1=C(c2nc(-c3ccccc3)no2)C(c2ccsc2)NC(S)=N1 (stereo not drawn)	-3.85%
CNC(=O)c1[nH]cnc1C(=O)Nc1ccccc1OC	0.755%
COc1ccc2c(CNCC3CCCO3)c(C(=O)O)n(Cc3ccccc3C)c2c1 (stereo not drawn)	-4.37%
OC1=C2C(=Nc3ccccc3NC2c2cccc(O)c2)CC(c2ccccc2)C1 (stereo not drawn)	-3.26%
O=C(Nc1ccc(Cl)cn1)C12CC3CC(CC(C3)C1)C2	4.1%
CCCCOc1ccc(N2C(=O)CC(N3CCN(c4ccccn4)CC3)C2=O)cc1 (stereo not drawn)	-9.4%
COc1ccccc1-c1cc(C(=O)N2CCc3ccccc3C2)no1	-1.28%
CC(=O)c1nn(-c2cccc(Br)c2)cc1C(=O)c1ccccc1	-1.49%
CC1=C(c2ccc(C)c(C)c2)S(=O)(=O)N=C1N1CCC2(CC1)OCCO2	2.27%
O=C1C(=O)N2C(=C1C(=O)N1CCCCCC1)c1ccccc1CC21CCCCC1	0.475%
O=C(O)c1c(CNC2CCCc3ccccc32)c2ccccc2n1Cc1ccccc1F (stereo not drawn)	5.09%
COc1ccc2oc(=O)cc(CN(C)Cc3ccco3)c2c1	-3.49%
